{
  "source": "patent US11618753B2",
  "about": "(priority 2018, dated 2023)",
  "data": [
    {"tested_on": "MLKL phosphorylation, HT29-L23 human colorectal adenocarcinoma cells", "assay": "cells", "details": "read-out: pMLKL HCS Cell Assay (IC50, uM)", "units": {"IC50": "µM"}, "values": [
      {"compound": "COc1ncc(-c2cc(C(F)(F)F)c3c(N)ncnn23)cc1C(=O)N[C@@H]1CN(C(=O)OCCCF)C[C@@H]1F", "note": "[Example 1445, 3-fluoropropyl (3R,4S)-3-{5-[4-amino-5-(trifluoromethyl)pyrrolo[2,1-f][1,2,4]triazin-7-yl]-2-methoxypyridine-3-amido}-4-fluoropyrrolidine-1-carboxylate]", "IC50": 0.0076},
      {"compound": "COc1ncc(-c2cc(C(F)(F)F)c3c(N)ncnn23)cc1C(=O)N[C@@H]1CN(C(=O)OC(C)C(F)(F)F)C[C@@H]1F", "note": "(stereo partly drawn) [Example 1446, 1,1,1-trifluoropropan-2-yl (3R,4S)-3-{5-[4-amino-5-(trifluoromethyl)pyrrolo[2,1-f][1,2,4]triazin-7-yl]-2-methoxypyridine-3-amido}-4-fluoropyrrolidine-1-carboxylate]", "IC50": 0.0019},
      {"compound": "COc1ncc(-c2cc(C(F)(F)F)c3c(N)ncnn23)cc1C(=O)N[C@@H]1CN(C(=O)OC2CC2)C[C@@H]1F", "note": "[Example 1447, cyclopropyl (3R,4S)-3-{5-[4-amino-5-(trifluoromethyl)pyrrolo[2,1-f][1,2,4]triazin-7-yl]-2-methoxypyridine-3-amido}-4-fluoropyrrolidine-1-carboxylate]", "IC50": 0.0075},
      {"compound": "COc1ncc(-c2cc(C(F)(F)F)c3c(N)ncnn23)cc1C(=O)N[C@@H]1CN(C(=O)OC2CCC2)C[C@@H]1F", "note": "[Example 1448, cyclobutyl (3R,4S)-3-{5-[4-amino-5-(trifluoromethyl)pyrrolo[2,1-f][1,2,4]triazin-7-yl]-2-methoxypyridine-3-amido}-4-fluoropyrrolidine-1-carboxylate]", "IC50": 0.0015},
      {"compound": "COc1ncc(-c2cc(C(F)(F)F)c3c(N)ncnn23)cc1C(=O)N[C@@H]1CN(C(=O)O[C@@H](C)CO)C[C@@H]1F", "note": "[Example 1449, (2S)-1-hydroxypropan-2-yl (3R,4S)-3-{5-[4-amino-5-(trifluoromethyl)pyrrolo[2,1-f][1,2,4]triazin-7-yl]-2-methoxypyridine-3-amido}-4-fluoropyrrolidine-1-carboxylate]", "IC50": 0.131},
      {"compound": "COc1ncc(-c2cc(C(F)(F)F)c3c(N)ncnn23)cc1C(=O)N[C@@H]1CN(C(=O)O[C@H](C)CO)C[C@@H]1F", "note": "[Example 1450, (2R)-1-hydroxypropan-2-yl (3R,4S)-3-{5-[4-amino-5-(trifluoromethyl)pyrrolo[2,1-f][1,2,4]triazin-7-yl]-2-methoxypyridine-3-amido}-4-fluoropyrrolidine-1-carboxylate]", "IC50": 0.164},
      {"compound": "COc1ncc(-c2cc(C(F)(F)F)c3c(N)ncnn23)cc1C(=O)N[C@@H]1CN(C(=O)OC[C@H](C)O)C[C@@H]1F", "note": "[Example 1451, (2S)-2-hydroxypropyl (3R,4S)-3-{5-[4-amino-5-(trifluoromethyl)pyrrolo[2,1-f][1,2,4]triazin-7-yl]-2-methoxypyridine-3-amido}-4-fluoropyrrolidine-1-carboxylate]", "IC50": 0.099},
      {"compound": "COc1ncc(-c2cc(C(F)(F)F)c3c(N)ncnn23)cc1C(=O)N[C@@H]1CN(C(=O)O[C@@H](CO)CC2CC2)C[C@@H]1F", "note": "[Example 1452, (2R)-1-cyclopropyl-3-hydroxypropan-2-yl (3R,4S)-3-{5-[4-amino-5-(trifluoromethyl)pyrrolo[2,1-f][1,2,4]triazin-7-yl]-2-methoxypyridine-3-amido}-4-fluoropyrrolidine-1-carboxylate]", "IC50": 0.085},
      {"compound": "COc1ncc(-c2cc(C(F)(F)F)c3c(N)ncnn23)cc1C(=O)N[C@@H]1CN(C(=O)OCCO)C[C@@H]1F", "note": "[Example 1453, 2-hydroxyethyl (3R,4S)-3-{5-[4-amino-5-(trifluoromethyl)pyrrolo[2,1-f][1,2,4]triazin-7-yl]-2-methoxypyridine-3-amido}-4-fluoropyrrolidine-1-carboxylate]", "IC50": 0.318},
      {"compound": "COc1ncc(-c2cc(C(F)(F)F)c3c(N)ncnn23)cc1C(=O)N[C@@H]1CN(C(=O)OC2CC(F)(F)C2)C[C@@H]1F", "note": "[Example 1454, 3,3-difluorocyclobutyl (3R,4S)-3-{5-[4-amino-5-(trifluoromethyl)pyrrolo[2,1-f][1,2,4]triazin-7-yl]-2-methoxypyridine-3-amido}-4-fluoropyrrolidine-1-carboxylate]", "IC50": 0.0068},
      {"compound": "COc1ncc(-c2cc(C(F)(F)F)c3c(N)ncnn23)cc1C(=O)N[C@@H]1CN(S(=O)(=O)C(C)C)C[C@@H]1F", "note": "[Example 1460, 5-(4-Amino-5-(trifluoromethyl)pyrrolo[2,1-f][1,2,4]triazin-7-yl)-N-((3R,4S)-4-fluoro-1-(isopropylsulfonyl)pyrrolidin-3-yl)-2-methoxynicotinamide]", "IC50": 0.042},
      {"compound": "COc1ncc(-c2cc(C(F)(F)F)c3c(N)ncnn23)cc1C(=O)N[C@@H]1CN(S(=O)(=O)C2CC2)C[C@@H]1F", "note": "[Example 1461, 5-[4-amino-5-(trifluoromethyl)pyrrolo[2,1-f][1,2,4]triazin-7-yl]-N-[(3R,4S)-1-(cyclopropanesulfonyl)-4-fluoropyrrolidin-3-yl]-2-methoxypyridine-3-carboxamide]", "IC50": 0.032},
      {"compound": "COc1ncc(-c2cc(C(F)(F)F)c3c(N)ncnn23)cc1C(=O)N[C@@H]1CN(S(=O)(=O)C2CCCC2)C[C@@H]1F", "note": "[Example 1463, 5-[4-amino-5-(trifluoromethyl)pyrrolo[2,1-f][1,2,4]triazin-7-yl]-N-[(3R,4S)-1-(cyclopentanesulfonyl)-4-fluoropyrrolidin-3-yl]-2-methoxypyridine-3-carboxamide]", "IC50": 0.002},
      {"compound": "COc1ncc(-c2cc(C(F)(F)F)c3c(N)ncnn23)cc1C(=O)N[C@@H]1CN(S(=O)(=O)C(C)C(C)C)C[C@@H]1F", "note": "(stereo partly drawn) [Example 1464, 5-[4-amino-5-(trifluoromethyl)pyrrolo[2,1-f][1,2,4]triazin-7-yl]-N-[(3R,4S)-4-fluoro-1-(3-methylbutane-2-sulfonyl)pyrrolidin-3-yl]-2-methoxypyridine-3-carboxamide]", "IC50": 0.0047},
      {"compound": "COc1ncc(-c2cc(C(F)(F)F)c3c(N)ncnn23)cc1C(=O)N[C@@H]1CN(S(=O)(=O)C(C)CC(C)C)C[C@@H]1F", "note": "(stereo partly drawn) [Example 1465, 5-[4-amino-5-(trifluoromethyl)pyrrolo[2,1-f][1,2,4]triazin-7-yl]-N-[(3R,4S)-4-fluoro-1-(4-methylpentane-2-sulfonyl)pyrrolidin-3-yl]-2-methoxypyridine-3-carboxamide]", "IC50": 0.016},
      {"compound": "COc1ncc(-c2cc(C(F)(F)F)c3c(N)ncnn23)cc1C(=O)N[C@@H]1CN(S(=O)(=O)C(C)C(F)(F)F)C[C@@H]1F", "note": "(stereo partly drawn) [Example 1466, 5-[4-amino-5-(trifluoromethyl)pyrrolo[2,1-f][1,2,4]triazin-7-yl]-N-[(3R,4S)-4-fluoro-1-(1,1,1-trifluoropropane-2-sulfonyl)pyrrolidin-3-yl]-2-methoxypyridine-3-carboxamide]", "IC50": 0.0033},
      {"compound": "COc1ncc(-c2cc(C(F)(F)F)c3c(N)ncnn23)cc1C(=O)N[C@@H]1CN(S(=O)(=O)CC(F)(F)F)C[C@@H]1F", "note": "[Example 1467, 5-[4-amino-5-(trifluoromethyl)pyrrolo[2,1-f][1,2,4]triazin-7-yl]-N-[(3R,4S)-4-fluoro-1-(2,2,2-trifluoroethanesulfonyl)pyrrolidin-3-yl]-2-methoxypyridine-3-carboxamide]", "IC50": 0.016},
      {"compound": "COc1ncc(-c2cc(C(F)(F)F)c3c(N)ncnn23)cc1C(=O)N[C@@H]1CN(S(=O)(=O)/C=C\\F)C[C@@H]1F", "note": "[Example 1468, 5-[4-amino-5-(trifluoromethyl)pyrrolo[2,1-f][1,2,4]triazin-7-yl]-N-[(3R,4S)-4-fluoro-1-[(Z)-2-fluoroethenesulfonyl]pyrrolidin-3-yl]-2-methoxypyridine-3-carboxamide]", "IC50": 0.278}
    ]}
  ]
}
